{"source": "ChEMBL document CHEMBL4513137", "about": "“CO-ADD screening of University of Manchester (UK) compounds”", "note": "The other results are listed elsewhere or left out. Entries with a potency or affinity are not part of this list."}
{"test_system": "Pseudomonas aeruginosa", "conditions": "Concentration 32 ug.mL-1; ASSAY_TEST Inhibition of Bacterial Growth; detection method Absorption (OD600); MEDIA CAMHB; plate type 384well; NBS; CORNING #3640; time 18 hr", "units": {"Inhibition": "%"}}
{"smiles": "CC(=O)c1ccc(-c2ccccc2Nc2ccccc2)cc1", "Inhibition": 28.85}
{"smiles": "O=[N+]([O-])c1cc(Cl)c(-c2ccccc2Nc2ccccc2)c(Cl)c1", "Inhibition": 45.19}
{"smiles": "O=[N+]([O-])c1ccc(-c2ccccc2Nc2ccccc2)cc1C(F)(F)F", "Inhibition": 49.55}
{"smiles": "Cc1cc(C)c(Nc2ccccc2-c2ccc([N+](=O)[O-])cc2)c(C)c1", "Inhibition": -8.25}
{"smiles": "O=[N+]([O-])c1ccc(-c2ccccc2Nc2ccccc2Br)cc1", "Inhibition": 46.63}
{"smiles": "COc1cc([N+](=O)[O-])ccc1-c1ccccc1Nc1ccccc1", "Inhibition": 44.78}
{"smiles": "O=[N+]([O-])c1ccc(-c2ccccc2Nc2ccccc2)cc1F", "Inhibition": 55.36}
{"smiles": "Cc1cccc(C)c1Nc1ccccc1-c1ccccc1[N+](=O)[O-]", "Inhibition": 22.81}
{"smiles": "O=[N+]([O-])c1ccc(-c2c(Nc3ccccc3)ccc3ccccc23)cc1", "Inhibition": 13.41}
{"smiles": "Cc1ccccc1Nc1ccccc1-c1ccc([N+](=O)[O-])cc1", "Inhibition": -5.81}
{"smiles": "CC[C@@H](Nc1ccccc1-c1c(Cl)cc(Br)cc1Cl)c1ccccc1", "Inhibition": 48.28}
{"smiles": "Clc1cc(Br)cc(Cl)c1-c1ccccc1Nc1ccccc1", "Inhibition": 32.77}
{"smiles": "c1ccc(Nc2ccccc2-c2ncccn2)cc1", "Inhibition": 60.14}
{"smiles": "COc1cccc(N(C)c2cccc(OC)c2-c2ccc([N+](=O)[O-])cc2C)c1", "Inhibition": 7.16}
{"smiles": "O=[N+]([O-])c1ccc(-c2cccc3c2[nH]c2ccccc23)cc1", "Inhibition": 43.72}
{"smiles": "CN(c1ccccc1)c1ccccc1-c1ccc([N+](=O)[O-])cc1", "Inhibition": 40.33}
{"smiles": "COc1ccc(Nc2ccccc2-c2ccc([N+](=O)[O-])cc2)cc1", "Inhibition": 65.22}
{"smiles": "Cc1cc([N+](=O)[O-])ccc1-c1ccccc1N(C)c1ccccc1", "Inhibition": -8.3}
{"smiles": "N#Cc1ccc(-c2ccccc2Nc2ccccc2)cc1", "Inhibition": 39.97}
{"smiles": "COc1cccc(Nc2ccccc2)c1-c1c(Cl)cc(Br)cc1Cl", "Inhibition": 61.56}
{"smiles": "O=[N+]([O-])c1ccc(-c2ccccc2Nc2ccccc2)cc1", "Inhibition": -5.45}
{"smiles": "O=[N+]([O-])c1ccc(-c2c(Nc3ccccc3)cccc2-c2ccccc2)cc1", "Inhibition": 19.1}
{"smiles": "COc1cc([N+](=O)[O-])ccc1-c1c(Nc2ccccc2)cccc1OC", "Inhibition": 30.66}
{"smiles": "O=[N+]([O-])c1ccc(-c2ccccc2N(Cc2ccccc2)c2ccccc2)cc1", "Inhibition": 47.94}
{"smiles": "O=[N+]([O-])c1ccc(-c2ccccc2Nc2ccccc2)c(Cl)c1", "Inhibition": 46.67}
{"smiles": "O=[N+]([O-])c1ccc2c3ccccc3n(-c3ccccc3)c2c1", "Inhibition": 37.57}
{"smiles": "COc1cccc(Nc2ccccc2)c1-c1ccc([N+](=O)[O-])cc1", "Inhibition": 2.06}
